Hit rate of the full screen: of about 410,000 compounds, about 6,400 (1.6%) were called active. The inconclusive results got no clear call from the source; some entries with a clear call stand among them for comparison. Calls come from the whole dose curve; as a rule, active = well fitted inhibition curve with a large enough effect; inconclusive = small, poorly fitted or top-dose-only effect; inactive = no such curve, though single readings can be large or run the other way. Potencies of inconclusive entries are left out as doubtful fits.
Biological target: Glucagon-like peptide 1 receptor (Homo sapiens) (UniProt P43220)
Sequence of UniProt P43220 (P43220 whole entry, looked up): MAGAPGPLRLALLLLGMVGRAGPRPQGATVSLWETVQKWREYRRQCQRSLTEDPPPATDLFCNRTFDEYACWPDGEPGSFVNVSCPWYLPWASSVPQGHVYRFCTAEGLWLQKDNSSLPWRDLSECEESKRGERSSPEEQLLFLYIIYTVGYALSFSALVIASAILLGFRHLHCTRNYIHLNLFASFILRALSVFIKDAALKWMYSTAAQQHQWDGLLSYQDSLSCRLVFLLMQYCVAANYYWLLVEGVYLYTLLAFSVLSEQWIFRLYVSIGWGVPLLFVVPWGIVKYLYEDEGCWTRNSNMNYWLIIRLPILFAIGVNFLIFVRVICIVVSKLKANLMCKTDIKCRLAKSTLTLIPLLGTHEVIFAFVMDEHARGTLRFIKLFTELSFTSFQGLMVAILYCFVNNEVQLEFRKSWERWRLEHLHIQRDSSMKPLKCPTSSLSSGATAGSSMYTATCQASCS
Test: qHTS of GLP-1 Receptor Inverse Agonists (Inhibition Mode); note: nearly all actives have a fitted effect of over 55% in size
Settings: HEK293 GLP-1R CRE-luciferase, luminescence, 24 h, GLP-1R form is constitutively active; series mostly up to 38.3 µM
Method in brief: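 Stable HEK293 clone (constitutively active GLP-1R + cAMP-response luciferase); 200 cells/uL plated, 12 h pre-culture, compound 24 hr, 37 deg C/5% CO2; detection reagent 12 min RT; luminescence.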
Potency is the fitted concentration of half-maximal effect; tags give direction and shape of the fitted curve.

| SMILES | Potency |
| --- | --- |
| O=C(c1cc(COc2cccc3cnccc23)on1)N1CCC(c2ccccc2Cl)C1 (stereo unspecified) | inconclusive [inhibitor, single point] |
| COc1ccc(/C=C(\C#N)C(=O)NCCc2ccccc2)cc1OCc1ccccc1 | inconclusive [inhibitor, partial curve] |
| C=CCn1c(SCC(=O)N2CCN(c3ccc(F)cc3)CC2)nnc1-c1ccco1 | inconclusive [inhibitor, single point] |
| Cc1cc(C)c2c(CC(=O)Nc3nnc(CC(C)C)s3)coc2c1 | inactive |
| N#CC1=C2C=CC=CN2CC1=O | inconclusive [inhibitor, full curve] |
| CCc1ccc(S(=O)(=O)c2cn(C)c3cc(N4CCN(CC)CC4)c(F)cc3c2=O)cc1 | inactive |
| CCOC(=O)c1cnc(-n2nc(C)cc2C)nc1NC(C)c1ccccc1 (stereo unspecified) | active: 2.51 µM |
| O=C(c1cc2ccccc2cc1O)N1CCCC(C(F)(F)F)C1 (stereo unspecified) | inconclusive [inhibitor, partial curve, poor fit] |
| CCCN(S(=O)(=O)c1ccc(OCC)cc1)S(=O)(=O)c1cccs1 | inconclusive [inhibitor, partial curve, poor fit] |
| O=C(Nc1ccccc1C(=O)OCc1cc(=O)n2ccsc2n1)c1cccc(F)c1 | inconclusive [inhibitor, partial curve] |
| Cc1cc(Nc2cccc(Cl)c2)nc2ccc(NC(=O)c3ccc(F)cc3Cl)cc12 | inconclusive [inhibitor, partial curve, poor fit] |
| Cc1ccc2nc(/C(C#N)=C/c3ccc(-c4ccc(F)cc4F)o3)[nH]c2c1 | inactive |
| C#Cc1cccc(C(=O)NC2CCCN(C3Cc4ccccc4C3)C2)c1 (stereo unspecified) | inconclusive [inhibitor, single point] |
| Clc1ccc2c(c1)Nc1ccccc1CC2 | inconclusive [inhibitor, single point] |
| Fc1ccc(C2=NC(c3cccc(C(F)(F)F)c3)=Nc3ccccc3N2)cc1 | inconclusive [inhibitor, partial curve, poor fit] |
| CCOc1ccc(Nc2ncnc(N)n2)cc1 | inactive |
| COc1ccc(NC(=S)N(Cc2ccc(N(C)C)cc2)Cc2ccco2)cc1 | inconclusive [inhibitor, single point] |
| COc1ccc(NC(=O)CN2C(=O)NC(C)(c3ccc(C)cc3)C2=O)c([N+](=O)[O-])c1 (stereo unspecified) | inconclusive [inhibitor, full curve] |
| CCCCN1C(=O)C(=O)N(CC(=O)Nc2cc(Cl)ccc2OC)C1=O | inactive |
| CC(=O)NC(c1ccccc1)c1nc(/C=C/c2ccccc2)cs1 (stereo unspecified) | inactive |
| Cc1cc(C)c2[nH]c(=S)cc(C)c2c1 | inactive |
| O=C(c1cc2ccccc2cc1O)N1CCN(c2cccc(Cl)c2)CC1 | inconclusive [inhibitor, single point] |

| SMILES | Potency |
| --- | --- |
| O=C(COc1ccc(F)cc1)c1ccc2c(c1)CCCC2 | inconclusive [inhibitor, single point] |
| CC1CCCN(CCC(=O)Nc2ccccc2)C1 (stereo unspecified) | inactive |
| Cc1c(CCO)c(=O)[nH]n1S(=O)(=O)c1ccc([N+](=O)[O-])cc1 | inactive |
| CN1OC[C@@H]2CN(C(=O)CCc3ccccc3)[C@H](c3cccc(Oc4ccccc4)c3)C[C@@H]21 | inconclusive [inhibitor, single point] |
| Cc1onc(-c2c(Cl)cccc2Cl)c1C(=O)NC1C(=O)N2C1SC(C)(C)C2C(=O)O (stereo unspecified) | inactive |
| COc1ccccc1N1CCN(C(=O)CCNS(=O)(=O)c2cc(Br)cnc2N)CC1 | inconclusive [inhibitor, single point] |
| CC(NCC(O)c1ccc([N+](=O)[O-])cc1)C12CC3CC(CC(C3)C1)C2 (stereo unspecified) | inconclusive [inhibitor, single point] |
| CCOC(=O)[C@]12CCC=C1N(Cc1ccc3c(c1)OCO3)C(=O)[C@H](CC(=O)NCC13CC4CC(CC(C4)C1)C3)C2 | inconclusive [inhibitor, partial curve, poor fit] |
| COc1ccc(-c2cc(C(F)F)n3ncc(C(=O)N4CCc5ccccc5C4)c3n2)cc1 | inconclusive [inhibitor, single point] |
| CCOC(=O)c1sc(NC(=O)C2CCCCC2)nc1C | inconclusive [inhibitor, single point] |
| COc1cc([C@H]2c3[nH]c4ccccc4c3C[C@H]3C(=O)N4[C@@H](c5cc(OC)c(OC)c(OC)c5)c5[nH]c6ccccc6c5C[C@H]4C(=O)N23)cc(OC)c1OC | active: 10 µM |
| Cc1cc(=O)c(C(=O)O)cn1Nc1ccc(F)cc1 | inactive |
| CC1(C)Oc2ccc(NC(=O)C3COc4ccccc4O3)cc2O1 (stereo unspecified) | inconclusive [inhibitor, single point] |
| Cc1ccc(Cl)cc1NC(=O)C1CCCN(S(=O)(=O)c2c(C)noc2/C=C/N(C)C)C1 (stereo unspecified) | inactive |
| COCCNC(=O)c1ccccc1NC(=O)c1ccc(Cl)c(S(=O)(=O)Nc2ccc(C)cc2C)c1 | inconclusive [inhibitor, partial curve, poor fit] |
| N=c1c2c(-c3ccccc3)c(-c3ccccc3)oc2ncn1Cc1ccco1 | inconclusive [inhibitor, partial curve, poor fit] |
| CCOC(=O)[C@H]1[C@H]2COc3ccc(Cl)cc3[C@@H]2N2C(=O)c3ccc(F)cc3NC(=O)[C@@]12C | inconclusive [inhibitor, single point] |
| Cc1ccccc1OCCn1cc(C=O)c2ccccc21 | inconclusive [inhibitor, single point] |
| Cc1ccc(NC(=O)Cn2nnc3ccccc32)cc1 | inactive |
| O=C(NCCc1ccccc1)c1cc(-c2ccccc2)nc2n[nH]c(-c3ccccc3)c12 | inconclusive [inhibitor, partial curve, poor fit] |
| CCOC(=O)CN(C(=O)c1ccccc1)c1ccccc1C | inconclusive [inhibitor, single point] |
| Nc1nonc1-n1nnc(C(=O)N/N=C/c2cc(Br)cs2)c1-c1ccccc1 | inconclusive [inhibitor, full curve, poor fit] |

| SMILES | Potency |
| --- | --- |
| Cc1cccc(N2C(=O)CSC23CCCCC3)c1 | inconclusive [inhibitor, single point] |
| COC(=O)c1ccc(OCC(=O)NC2CCCCCC2)cc1 | inconclusive [inhibitor, single point] |
| CC(C)[C@H]1COCCS(=O)(=O)N1Cc1ccccc1-c1ccc(C(C)(C)C)cc1 | inconclusive [inhibitor, single point] |
| O=C(NCC1CCCCC1)c1cc2ccccc2cc1O | inconclusive [inhibitor, single point] |
| COc1ccccc1NC(=S)NC(NC(=O)c1ccco1)C(Cl)(Cl)Cl (stereo unspecified) | inconclusive [inhibitor, single point] |
| Cc1ccc(CN2CC(C(=O)Nc3ccc(F)c([N+](=O)[O-])c3)CC2=O)cc1 (stereo unspecified) | inconclusive [inhibitor, single point] |
| O=C(Nc1cc(S(=O)(=O)Nc2ccc(Cl)cc2)ccc1N1CCCCC1)c1ccc(F)cc1Cl | inconclusive [inhibitor, partial curve, poor fit] |
| COc1cccc(C2C(C(C)=O)=C(O)C(=O)N2CCc2c[nH]c3ccccc23)c1 (stereo unspecified) | inactive |
| O=S1(=O)N[C@@H](c2ccccc2)COc2cc(Br)ccc21 | inconclusive [inhibitor, partial curve, poor fit] |
| O=C(C1CCN(c2ncnc3c2nc2n3CCCCC2)CC1)N1CCN(c2ccccc2)CC1 | inactive |
| O=C(NCCc1c[nH]c2ccccc12)C1CCN(S(=O)(=O)c2ccccc2)CC1 | inconclusive [inhibitor, partial curve, poor fit] |
| S=C(NCc1ccco1)Nc1ccc(Cl)cn1 | inconclusive [inhibitor, single point] |
| Cc1ccc(S(=O)(=O)Nc2cc3c(C(=O)OCc4ccccc4)c(C)oc3c3ccccc23)cc1 | inactive |
| Cc1cc(Cn2nc(-c3ccccc3)cc2C(=O)NCc2cccs2)on1 | inconclusive [inhibitor, single point] |
| COCCn1c(SCC(=O)NC2CCCC(C)C2C)nc2ccccc2c1=O (stereo unspecified) | inconclusive [inhibitor, single point] |
| COc1ccc(Cl)cc1NC(=O)CCNC(=O)Cn1ccc2ccccc2c1=O | inactive |
| N#Cc1ccccc1Cn1c(=O)n(-c2ccc(F)c(Cl)c2)c(=O)c2sccc21 | inactive |
| O=C(c1cc(=O)c2ccccc2o1)N1CCN(c2cccc(Cl)c2)CC1 | inconclusive [inhibitor, single point] |
| CN(C(=O)CC(NC(=O)c1ccccc1Cl)c1ccccc1)c1ccccc1 (stereo unspecified) | inconclusive [inhibitor, single point] |
| CCCCSCCCNC(=O)Nc1cccc(OC)c1 | inconclusive [inhibitor, single point] |
| Cc1ccc(C)c(NC(=O)Cn2c(=O)n(Cc3ccco3)c(=O)c3ccc(C(=O)NC4CCCC4)cc32)c1 | inactive |
| OC(COc1ccc(Cl)cc1)CN1CCN(c2ccccn2)CC1 (stereo unspecified) | inconclusive [inhibitor, partial curve, poor fit] |
